Data from the supplement of paper PMC10126150.
Sequences with one replicate were seen in a single cluster, so their values are uncertain.
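Also: ATP exposure 15 min at 22 °C before imaging.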

What follows are sequences tested on ATP (assay: switch fluorescence ratio, 500 uM ATP over buffer (Cy3 cluster intensity, sum of 5 cycles each) (fold (ratio)); higher = stronger signal-on switching upon ATP binding; sequences stand for … in TCGTCGGCAGCGTCAGATGTGTATAAGAGACAGTTTTTTTTTTTTTTTTTTTTTTTTT…TC). Settings: aptamer strand: ATP DNA aptamer (quencher-CACCTGGGGGAGTATTGCGGAGGAAGG + anchor), 100 nM annealed; ATP concentration: 500 uM; one replicate.
Method in brief: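 The quencher-labelled ATP aptamer, at 100 nM, was annealed to Cy3-labelled switching-strand clusters on a modified Illumina MiSeq flow-cell. The clusters were imaged in selection buffer, then after 15 min with 500 uM ATP at 22 °C, and this buffer/ATP cycle ran five times with NaOH stripping and re-annealing between runs. Per-cluster fluorescence ratios, summed target-cycle over summed buffer-cycle Cy3 intensity, were averaged per switch-domain sequence. Clusters outside 100-1000 RFU were excluded.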
With TATTCGATCC the switch fluorescence ratio was 1. In the case of TATTCGTGAG, the switch fluorescence ratio is reported as 1.01. In the case of TATTCTATGG, the switch fluorescence ratio is reported as 0.978. TATTCTCAGT gave a switch fluorescence ratio of 0.991. TATTCTGAGG was tested, and the switch fluorescence ratio was 1. With TATTCTTGAC the switch fluorescence ratio was 0.954. Work on TATTCTTTAA yielded a switch fluorescence ratio of 1.02. In the case of TATTGACCCT, the switch fluorescence ratio is reported as 1.08. TATTGACTGG was tested, and the switch fluorescence ratio was 0.937. TATTGATATA showed a switch fluorescence ratio of 0.995. TATTGATCCA showed a switch fluorescence ratio of 1.03. In the case of TATTGCAAAC, the switch fluorescence ratio is reported as 1.04. With TATTGCCTT the switch fluorescence ratio was 1.07. In the case of TATTGCTCC, the switch fluorescence ratio is reported as 1.05. In the case of TATTGCTCCG, the switch fluorescence ratio is reported as 1.31. For TATTGGAGG, the switch fluorescence ratio was 0.978. For TATTGGCCCT, the switch fluorescence ratio was 1.07. TATTGGTACC was tested, and the switch fluorescence ratio was 0.974. In the case of TATTGTACGA, the switch fluorescence ratio is reported as 0.957. Work on TATTGTTGAT yielded a switch fluorescence ratio of 0.957. For TATTGTTGGT, the switch fluorescence ratio was 1. In the case of TATTTAGCCG, the switch fluorescence ratio is reported as 0.975. For TATTTATTCA, the switch fluorescence ratio was 1.01. TATTTGCCTA was tested, and the switch fluorescence ratio was 1.02. With TATTTGCGGT the switch fluorescence ratio was 0.982. Sequence TATTTTAAGG has a switch fluorescence ratio of 0.983. TATTTTCATA was tested, and the switch fluorescence ratio was 1.11. TCAAAAAACA showed a switch fluorescence ratio of 1.01. TCAAAAGTTC gave a switch fluorescence ratio of 1. TCAAAATCAG was tested, and the switch fluorescence ratio was 1. TCAAACCGTA was tested, and the switch fluorescence ratio was 1. With TCAAACGATA the switch fluorescence ratio was 1.04. TCAAACTTTT showed a switch fluorescence ratio of 0.969. TCAAAGGC was tested, and the switch fluorescence ratio was 1.01. TCAAAGTACG showed a switch fluorescence ratio of 1.1. TCAAATTCG was tested, and the switch fluorescence ratio was 0.995. Sequence TCAAATTGTA has a switch fluorescence ratio of 1.05. In the case of TCAACCTTCG, the switch fluorescence ratio is reported as 2.09. TCAACGAGCG was tested, and the switch fluorescence ratio was 0.987. Work on TCAACGCGGC yielded a switch fluorescence ratio of 2.02. TCAACGGCGC was tested, and the switch fluorescence ratio was 1.01. TCAACGTCGC gave a switch fluorescence ratio of 1.12. In the case of TCAACTTTAC, the switch fluorescence ratio is reported as 1.27. TCAAGAACGA was tested, and the switch fluorescence ratio was 1.01. Work on TCAAGCAACA yielded a switch fluorescence ratio of 1.14. TCAAGCATGT gave a switch fluorescence ratio of 1.01. TCAAGCCAGA was tested, and the switch fluorescence ratio was 1.03. TCAAGCCTTA showed a switch fluorescence ratio of 0.956. TCAAGGATCT gave a switch fluorescence ratio of 0.996. Work on TCAAGGTAGA yielded a switch fluorescence ratio of 1.01. TCAAGTCGGG showed a switch fluorescence ratio of 1. TCAAGTTGTG showed a switch fluorescence ratio of 0.943. TCAATCAGA was tested, and the switch fluorescence ratio was 0.933. Work on TCAATGAAGG yielded a switch fluorescence ratio of 0.97. For TCAATGACGT, the switch fluorescence ratio was 1.01. With TCAATGGAGG the switch fluorescence ratio was 1.05. For TCAATTACCA, the switch fluorescence ratio was 1.01. TCAATTGAAG showed a switch fluorescence ratio of 1.05. Work on TCAATTGGCA yielded a switch fluorescence ratio of 0.967. TCAATTGTCG gave a switch fluorescence ratio of 0.958. Sequence TCACAAAAAT has a switch fluorescence ratio of 0.992. With TCACAAGGTA the switch fluorescence ratio was 1.04. With TCACAATTAT the switch fluorescence ratio was 0.99. TCACACACTG showed a switch fluorescence ratio of 1.38. With TCACAGAGGT the switch fluorescence ratio was 1.03. With TCACAGCCGT the switch fluorescence ratio was 1.05. TCACAGCTTA showed a switch fluorescence ratio of 0.997. In the case of TCACAGTAGT, the switch fluorescence ratio is reported as 1.08. TCACATAACG was tested, and the switch fluorescence ratio was 1.24. TCACATTAGC gave a switch fluorescence ratio of 1.07. TCACATTTCT showed a switch fluorescence ratio of 0.999. For TCACCAGATC, the switch fluorescence ratio was 1.04. With TCACCGGGCT the switch fluorescence ratio was 0.976. Sequence TCACCGGTC has a switch fluorescence ratio of 1.11. TCACCTATGT was tested, and the switch fluorescence ratio was 1.02. TCACGAAAAG showed a switch fluorescence ratio of 0.996. Sequence TCACGACACT has a switch fluorescence ratio of 1.74. TCACGGGAGG was tested, and the switch fluorescence ratio was 1.02. Work on TCACGGGGTG yielded a switch fluorescence ratio of 1.04. Work on TCACGTGGAA yielded a switch fluorescence ratio of 1.09. With TCACTAGCGG the switch fluorescence ratio was 1.05. Sequence TCACTATAA has a switch fluorescence ratio of 1.07. Work on TCACTCAGAT yielded a switch fluorescence ratio of 1.01. In the case of TCACTCCCTG, the switch fluorescence ratio is reported as 1.26. TCACTCTCA gave a switch fluorescence ratio of 0.954. With TCACTTACTT the switch fluorescence ratio was 1.16. In the case of TCACTTAGTT, the switch fluorescence ratio is reported as 1.03. TCACTTCC was tested, and the switch fluorescence ratio was 1.81. Sequence TCACTTCGTC has a switch fluorescence ratio of 1.03. TCACTTTAT gave a switch fluorescence ratio of 1.05. TCAGAAACAG was tested, and the switch fluorescence ratio was 1.02. TCAGACTCAA was tested, and the switch fluorescence ratio was 1.57. TCAGACTCTA was tested, and the switch fluorescence ratio was 1.01. For TCAGAGAGCG, the switch fluorescence ratio was 1.05. With TCAGAGGGG the switch fluorescence ratio was 0.982. TCAGATTAGA gave a switch fluorescence ratio of 1. Sequence TCAGATTGTC has a switch fluorescence ratio of 0.996. Sequence TCAGCAGTAT has a switch fluorescence ratio of 1.48. With TCAGCCCATT the switch fluorescence ratio was 1.01. With TCAGCCTCA the switch fluorescence ratio was 0.974. In the case of TCAGCGCATT, the switch fluorescence ratio is reported as 1.36. With TCAGCGCCTG the switch fluorescence ratio was 0.986. For TCAGCGCGAT, the switch fluorescence ratio was 1.51. Work on TCAGCTAATC yielded a switch fluorescence ratio of 1.39. For TCAGCTGT, the switch fluorescence ratio was 1.05. For TCAGGACAGC, the switch fluorescence ratio was 1. Work on TCAGGCCGGG yielded a switch fluorescence ratio of 1.02. TCAGGCTTAC gave a switch fluorescence ratio of 1.3. TCAGGTCGAC was tested, and the switch fluorescence ratio was 1.01. TCAGTCAGGA was tested, and the switch fluorescence ratio was 1.06. Work on TCAGTGGTAC yielded a switch fluorescence ratio of 1.16. Sequence TCAGTGTCGG has a switch fluorescence ratio of 0.988. In the case of TCAGTGTTCG, the switch fluorescence ratio is reported as 1.05. Work on TCAGTTCCAA yielded a switch fluorescence ratio of 0.976. Sequence TCATAATCAC has a switch fluorescence ratio of 1.14. For TCATACGAGG, the switch fluorescence ratio was 1.02. TCATAGACAA showed a switch fluorescence ratio of 1.03. With TCATAGAGCT the switch fluorescence ratio was 0.956. In the case of TCATAGGCAT, the switch fluorescence ratio is reported as 1.01. With TCATATCAGT the switch fluorescence ratio was 0.969. Sequence TCATCATTTC has a switch fluorescence ratio of 1.01. For TCATCGATA, the switch fluorescence ratio was 1.01. TCATCGTAGC gave a switch fluorescence ratio of 1.07. With TCATCTGTCG the switch fluorescence ratio was 0.974. Sequence TCATCTTCGT has a switch fluorescence ratio of 1.02. With TCATCTTGCA the switch fluorescence ratio was 1.04. Sequence TCATGAAACC has a switch fluorescence ratio of 1.02. TCATGAATGG gave a switch fluorescence ratio of 1.01. TCATGACGAT was tested, and the switch fluorescence ratio was 1.02. With TCATGCAGGT the switch fluorescence ratio was 1.04. Sequence TCATGCAGTT has a switch fluorescence ratio of 0.989. Sequence TCATGCCATC has a switch fluorescence ratio of 0.986. Sequence TCATGCCTCA has a switch fluorescence ratio of 1.01. Work on TCATGGATGT yielded a switch fluorescence ratio of 1.02. TCATGTCCTT showed a switch fluorescence ratio of 0.992. TCATTAAA showed a switch fluorescence ratio of 0.974. With TCATTGCCCT the switch fluorescence ratio was 0.995. Work on TCATTGTTTC yielded a switch fluorescence ratio of 1. In the case of TCATTTGTCC, the switch fluorescence ratio is reported as 1.06. In the case of TCCAAACTGA, the switch fluorescence ratio is reported as 0.945. With TCCAACTGTA the switch fluorescence ratio was 1.08. TCCAAGGCGT gave a switch fluorescence ratio of 1.11. Sequence TCCAAGTGCC has a switch fluorescence ratio of 1.02. Work on TCCAAGTTCG yielded a switch fluorescence ratio of 1.02. In the case of TCCAATGTCA, the switch fluorescence ratio is reported as 1.03. With TCCAATGTTA the switch fluorescence ratio was 1.03. TCCAATGTTC gave a switch fluorescence ratio of 1.36. For TCCACACGTT, the switch fluorescence ratio was 0.967. In the case of TCCACAGGAG, the switch fluorescence ratio is reported as 1.49. TCCACATAAA showed a switch fluorescence ratio of 1.03. TCCAGAGACG gave a switch fluorescence ratio of 0.996. Sequence TCCAGAGTCA has a switch fluorescence ratio of 1.08. Work on TCCAGCAT yielded a switch fluorescence ratio of 1.26. TCCAGCCTTC showed a switch fluorescence ratio of 1.17. In the case of TCCAGCTTT, the switch fluorescence ratio is reported as 0.994. With TCCAGGCGGA the switch fluorescence ratio was 1.01. Work on TCCAGGCTC yielded a switch fluorescence ratio of 1.1. TCCAGGTTAA showed a switch fluorescence ratio of 1.06. TCCATCACTG gave a switch fluorescence ratio of 1.02. TCCATCTATG was tested, and the switch fluorescence ratio was 1.02. Work on TCCATCTCAG yielded a switch fluorescence ratio of 1.05. Sequence TCCATCTCTC has a switch fluorescence ratio of 1.01. For TCCATGCTGT, the switch fluorescence ratio was 1. In the case of TCCATGGACT, the switch fluorescence ratio is reported as 1.03. In the case of TCCATGGGCC, the switch fluorescence ratio is reported as 0.98. TCCATTCATT was tested, and the switch fluorescence ratio was 0.988. Work on TCCCAACGTA yielded a switch fluorescence ratio of 1.08. TCCCACTGGA was tested, and the switch fluorescence ratio was 1.12. In the case of TCCCAGAGA, the switch fluorescence ratio is reported as 0.976. TCCCATACAT showed a switch fluorescence ratio of 1.04. TCCCATGGTC was tested, and the switch fluorescence ratio was 1.05. Sequence TCCCATTCGA has a switch fluorescence ratio of 0.972. Work on TCCCCAGGAA yielded a switch fluorescence ratio of 1.29. For TCCCCAGGCA, the switch fluorescence ratio was 1.02. With TCCCCTTCTT the switch fluorescence ratio was 1. Sequence TCCCCTTGAA has a switch fluorescence ratio of 1.39. Work on TCCCGGAGGC yielded a switch fluorescence ratio of 1.12. In the case of TCCCGGAGGG, the switch fluorescence ratio is reported as 0.995. With TCCCGTGTCG the switch fluorescence ratio was 1.05. TCCCTCTATT gave a switch fluorescence ratio of 1.02. Sequence TCCCTGACCT has a switch fluorescence ratio of 1.36. TCCCTGCGTC showed a switch fluorescence ratio of 1.38. TCCCTTTTTG gave a switch fluorescence ratio of 0.959. TCCGAAGGAG was tested, and the switch fluorescence ratio was 0.972. Sequence TCCGAATCCG has a switch fluorescence ratio of 1.07. For TCCGACGGGT, the switch fluorescence ratio was 1.08. Work on TCCGACTAGG yielded a switch fluorescence ratio of 1.08. TCCGAGAAT was tested, and the switch fluorescence ratio was 0.997. TCCGAGCTTA gave a switch fluorescence ratio of 5.05. In the case of TCCGAGTACA, the switch fluorescence ratio is reported as 1.84. With TCCGATATGA the switch fluorescence ratio was 0.988. Work on TCCGATGTG yielded a switch fluorescence ratio of 1.17. In the case of TCCGATTAGG, the switch fluorescence ratio is reported as 1.02. Sequence TCCGATTTTC has a switch fluorescence ratio of 1.1. Work on TCCGCACTCA yielded a switch fluorescence ratio of 1.4. With TCCGCATTAG the switch fluorescence ratio was 2.44. For TCCGCATTGA, the switch fluorescence ratio was 1.91. Work on TCCGCTGCCG yielded a switch fluorescence ratio of 1.19. TCCGCTGGGG was tested, and the switch fluorescence ratio was 1.97. Sequence TCCGGATTGC has a switch fluorescence ratio of 2. For TCCGGCTTTT, the switch fluorescence ratio was 0.991.
